Measurements taken from publication PMC4336329 (PLoS ONE, 2015).
In all, about 310,000 compounds went through this assay and about 14,000 (4.5%) showed an effect of 50% or more. Effects have a minus sign here. This is one part of the list.
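Further: peak tail current of the secondary pulse compared with the same well before compound.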

These molecules were tested against human ether-à-go-go-related gene (hERG) potassium channel (human, UniProt Q12809) (assay: primary screen, population patch clamp on CHO cells stably expressing hERG).
human ether-à-go-go-related gene (hERG) potassium channel, sequence (Q12809 whole entry, looked up): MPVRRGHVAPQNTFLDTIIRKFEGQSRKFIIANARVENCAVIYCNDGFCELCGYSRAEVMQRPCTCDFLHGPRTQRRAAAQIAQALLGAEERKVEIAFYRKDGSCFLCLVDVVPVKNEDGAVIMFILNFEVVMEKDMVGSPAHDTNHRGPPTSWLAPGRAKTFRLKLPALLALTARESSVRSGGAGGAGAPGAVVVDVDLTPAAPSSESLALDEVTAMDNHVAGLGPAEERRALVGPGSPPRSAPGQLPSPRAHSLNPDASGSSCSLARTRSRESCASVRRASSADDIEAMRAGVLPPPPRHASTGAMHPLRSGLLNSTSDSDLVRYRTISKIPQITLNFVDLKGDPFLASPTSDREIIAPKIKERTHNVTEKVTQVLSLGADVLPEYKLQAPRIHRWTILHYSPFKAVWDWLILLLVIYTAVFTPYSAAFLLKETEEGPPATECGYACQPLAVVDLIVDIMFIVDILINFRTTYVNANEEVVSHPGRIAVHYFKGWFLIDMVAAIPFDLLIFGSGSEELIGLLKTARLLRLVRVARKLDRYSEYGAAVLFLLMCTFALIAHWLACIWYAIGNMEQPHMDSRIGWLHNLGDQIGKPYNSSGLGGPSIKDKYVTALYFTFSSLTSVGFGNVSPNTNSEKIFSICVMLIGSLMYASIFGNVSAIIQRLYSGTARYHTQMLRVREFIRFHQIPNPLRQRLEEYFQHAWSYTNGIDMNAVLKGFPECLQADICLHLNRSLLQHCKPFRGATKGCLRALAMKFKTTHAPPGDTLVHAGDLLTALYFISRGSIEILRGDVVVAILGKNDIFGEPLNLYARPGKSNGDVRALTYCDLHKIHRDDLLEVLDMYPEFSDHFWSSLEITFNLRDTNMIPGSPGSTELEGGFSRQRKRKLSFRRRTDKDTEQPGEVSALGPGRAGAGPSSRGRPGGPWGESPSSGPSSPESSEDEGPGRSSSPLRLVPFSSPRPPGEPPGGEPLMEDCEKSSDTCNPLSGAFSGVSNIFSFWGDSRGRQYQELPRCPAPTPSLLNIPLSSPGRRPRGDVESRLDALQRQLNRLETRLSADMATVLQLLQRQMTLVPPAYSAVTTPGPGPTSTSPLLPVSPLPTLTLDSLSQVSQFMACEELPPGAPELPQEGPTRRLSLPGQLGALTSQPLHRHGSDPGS
With COc1ccc(CN2CCOCCOCCN(Cc3ccc(OC)cc3)CCOCCOCC2)cc1 the “hERG current change (%, negative = inhibition) at 10uM” value was -77.3%. For CCC(=O)Nc1cccc(C2=NOC3(C2)C[C@@H](C(N)=O)N(C(=O)COc2ccc(Cl)cc2)C3)c1 (stereo partly shown), the “hERG current change (%, negative = inhibition) at 10uM” value was 4.12%. COc1ccc(-c2nc(CSCC(=O)NC3CCCc4ccccc43)c(C)o2)cc1OC (stereo not shown) was tested, and the “hERG current change (%, negative = inhibition) at 10uM” value was -0.229%. Cc1c(O)ccc2c(=O)c(-c3nncn3-c3ccccc3)coc12 was tested, and the “hERG current change (%, negative = inhibition) at 10uM” value was 21.2%. For O=C(Cc1ccc(S(=O)(=O)N2CCCCC2)s1)Nc1ccc(F)c(F)c1, the “hERG current change (%, negative = inhibition) at 10uM” value was -31.1%. NC1=NC(=O)/C(=C/c2cn(Cc3ccccc3)c3ccccc23)S1 was tested, and the “hERG current change (%, negative = inhibition) at 10uM” value was 8.82%. CC(=O)c1cc2c(cc1NC(=O)c1ccc(C)cc1)OCCO2 was tested, and the “hERG current change (%, negative = inhibition) at 10uM” value was -0.576%. CCCCN(C)CCCNC(=O)c1ccc2c(c1)N(CC)C(=O)c1ccccc1S2=O (stereo not shown) was tested, and the “hERG current change (%, negative = inhibition) at 10uM” value was 13.7%. With CN1CCC(Oc2ccccc2Sc2ccc(C(F)(F)F)cc2)CC1.O=C(O)C(=O)O the “hERG current change (%, negative = inhibition) at 10uM” value was -63.2%. COC(=O)c1sc(NC(=O)COc2ccc(C)cc2)nc1C was tested, and the “hERG current change (%, negative = inhibition) at 10uM” value was 11.4%. In the case of Cn1c(Cn2nnc3ccccc32)nnc1SCC(=O)Nc1nccs1, the “hERG current change (%, negative = inhibition) at 10uM” value is reported as -2.45%. In the case of Cc1cc(=O)[nH]c(N2CCN(Cc3ccccc3)CC2)n1, the “hERG current change (%, negative = inhibition) at 10uM” value is reported as -2.95%. For CC(C)CN1C(=O)C(=O)N(CC(=O)NC2CCCc3ccccc32)C1=O (stereo not shown), the “hERG current change (%, negative = inhibition) at 10uM” value was 11.5%. For COC(=O)CSc1nc(N)c(C#N)c(-c2ccco2)c1C#N, the “hERG current change (%, negative = inhibition) at 10uM” value was 5.03%. CCOC(=O)C1CCN(C(=O)c2c(-c3c(Cl)cccc3Cl)noc2C)CC1 was tested, and the “hERG current change (%, negative = inhibition) at 10uM” value was -15.9%. COc1ccc(OC)c(NC(=O)c2cc3c(Cl)nc4ccccc4c3s2)c1 was tested, and the “hERG current change (%, negative = inhibition) at 10uM” value was 17%. CNC(=O)CSc1nc2c(c(=O)n(C)c(=O)n2C)n1Cc1ccc(C)cc1 was tested, and the “hERG current change (%, negative = inhibition) at 10uM” value was -29.3%. For COc1ccccc1C(=O)Nc1ccc2c(c1)nc1n2CCN(C2CCCCC2)C1, the “hERG current change (%, negative = inhibition) at 10uM” value was -33.1%. For CSc1ccc(NC(=O)Nc2cccn(Cc3ccccc3)c2=O)cc1, the “hERG current change (%, negative = inhibition) at 10uM” value was 16.2%. In the case of Cc1ccc(NC(=S)NCCN2CCOCC2)cc1F, the “hERG current change (%, negative = inhibition) at 10uM” value is reported as -2.1%. In the case of CCCCN(CC(=O)NCCOC)C(=O)Cn1nnc2ccccc21, the “hERG current change (%, negative = inhibition) at 10uM” value is reported as 15.1%. In the case of CCc1ccc(C2C(C#N)=C(N)C(C#N)(C#N)C3=CCC(C(C)(C)C)CC32)cc1 (stereo not shown), the “hERG current change (%, negative = inhibition) at 10uM” value is reported as 5.1%. CC(=O)c1ccc(NC(=O)CNC2CCCCC2)cc1.Cl was tested, and the “hERG current change (%, negative = inhibition) at 10uM” value was 13.7%. For CCOc1ccc(C(=O)NC2CC(C)(C)NC(C)(C)C2)cc1.Cl, the “hERG current change (%, negative = inhibition) at 10uM” value was 7.37%. With C[C@@H]1OC(Nc2ccc(N=Nc3ccccc3)cc2)[C@H](O)[C@H](O)[C@H]1O (stereo partly shown) the “hERG current change (%, negative = inhibition) at 10uM” value was 15.1%. For OC1CCC(NC(=S)Nc2ccc(SC(F)F)cc2)CC1 (stereo not shown), the “hERG current change (%, negative = inhibition) at 10uM” value was 7.66%. CC1CCN(c2ccc([N+](=O)[O-])cn2)CC1 was tested, and the “hERG current change (%, negative = inhibition) at 10uM” value was 6.96%. In the case of C[C@@H](NC(=O)c1nc[nH]c1C(=O)N[C@@H](CCCCNC(=O)OC(C)(C)C)C(=O)OC(C)(C)C)c1ccccc1, the “hERG current change (%, negative = inhibition) at 10uM” value is reported as 3.23%. For O=c1oc2ccccc2c(N2CCCCC2)c1[N+](=O)[O-], the “hERG current change (%, negative = inhibition) at 10uM” value was -14.3%. In the case of CC(OC(=O)CCN=C1NS(=O)(=O)c2ccccc21)C(=O)c1ccccc1 (stereo not shown), the “hERG current change (%, negative = inhibition) at 10uM” value is reported as 7.33%. CCN1CCc2c(C#N)c(N3CCOCC3)nc(NCCO)c2C1 was tested, and the “hERG current change (%, negative = inhibition) at 10uM” value was 11.8%. With COC(=O)c1cc(NC(=O)CC2SCCNC2=O)cc(C(=O)OC)c1 (stereo not shown) the “hERG current change (%, negative = inhibition) at 10uM” value was 15.5%. In the case of CC1CC(c2ccccc2)n2nc(NC(=O)CCc3ccccc3)nc2N1 (stereo not shown), the “hERG current change (%, negative = inhibition) at 10uM” value is reported as -36.6%. COc1ccccc1NC(=O)CCc1nnc2ccc(N3CCC4(CC3)OCCO4)nn12 was tested, and the “hERG current change (%, negative = inhibition) at 10uM” value was -1%. For O=C(O)c1cnc(-c2ccccc2)nc1Sc1ccc(Cl)cc1, the “hERG current change (%, negative = inhibition) at 10uM” value was 3.92%. In the case of CCOP(=O)(OCC)C(NC(C)=O)C(Cl)(Cl)Cl (stereo not shown), the “hERG current change (%, negative = inhibition) at 10uM” value is reported as 10.1%. In the case of O=C(Nc1ccccc1)C1=C[C@H](c2csc3ccccc23)C[C@H](OCc2ccc(CO)cc2)O1, the “hERG current change (%, negative = inhibition) at 10uM” value is reported as 7.14%. In the case of CC(OC(=O)CCN=C1NS(=O)(=O)c2ccccc21)C(=O)N(C)c1ccccc1 (stereo not shown), the “hERG current change (%, negative = inhibition) at 10uM” value is reported as -14.7%. With CCCOC(=O)c1ccc(-c2c(C)noc2-c2ccc(OC)cc2O)o1 the “hERG current change (%, negative = inhibition) at 10uM” value was 9.02%. In the case of NC(=O)c1ccccc1NC(=O)c1cc(S(=O)(=O)N2CCCCC2)ccc1N1CCOCC1, the “hERG current change (%, negative = inhibition) at 10uM” value is reported as -73.9%. COc1cc(-c2cc(C(=O)NN3CCN(C)CC3)c3ccccc3n2)cc(OC)c1OC was tested, and the “hERG current change (%, negative = inhibition) at 10uM” value was 16.7%. With Cc1c(-c2ccc(F)cc2)nc(N)c(C#N)c1-c1ccco1 the “hERG current change (%, negative = inhibition) at 10uM” value was 6.39%. For O=C1CCCc2ccccc2N1Cc1cccc(F)c1, the “hERG current change (%, negative = inhibition) at 10uM” value was 11.4%.
